Data on 84 molecules can be found in ChEMBL document CHEMBL4888484, “Replenishing the malaria drug discovery pipeline: Screening and hit evaluation of the MMV Hit Generation Library 1 (HGL1) against asexual blood stage Plasmodium falciparum ,using a nano luciferase reporter read-out” (2022).

A word on the % Inhibition: it is the drop in the measured response relative to a control, in per cent.

Several values for one entry are separate records, joined by “and”; a condition that tells them apart may be missing. Identical values can stand only once. Among all 150,000 compounds or so, about 540 (0.36%) showed an effect of 50% or more. Some of the results follow.

This experiment has as its system Plasmodium falciparum. The experiment in a line: Primary screen in NF54 nanoGlo assay, in single point, at 2uM, 72h; a lower Z score goes with more inhibition. The class given is functional, Erythrocyte. The settings on record: timepoint 72 hour.

Take `Cc1cnn(CC(=O)N2CCN([C@H](C#N)C3CCCCC3)CC2)c1`: the “% Inhibition” value is -6% and the Z score was 1.07.
On to `O=S(=O)(c1ccc2c(c1)CCCC2)N1CC(N2CCCC2)C1`, for which the “% Inhibition” value was -8% and the Z score came to 1.19.
For `C=CCN(C(=O)c1ccc(=O)[nH]n1)[C@@H](C)C(C)C`, in that order: 15% and -1.64.
For `COc1ccc(-c2ccnc(N3CCN(c4cccc(C(F)(F)F)c4)CC3)n2)c(OC)c1`, in that order: -34% and 4.04.
For `Nc1c2c(-c3ccc(F)cc3)nc(NCc3ccccn3)nc2nn1-c1ccccc1Cl` the same measures were 4% and -0.51.
As to `CC=Cc1ccc(OCC(=O)Nc2cccc(NC(=O)Nc3ccccc3)c2)c(OC)c1`, the “% Inhibition” value was -7% and the Z score is recorded as 0.59.
For `CC(C)c1nc(CN(CC(F)(F)F)C2CCC2)no1`, in that order: -15% and 2.89.
For `Cc1c(CNCCCN(Cc2ccccc2)C(C)C)c(C(=O)O)c(C)n1-c1ccc(Cl)cc1` the same measures were -9% and 1.18.
On to `O=C(c1csc(-c2ccc(F)cc2)n1)N1CCC1`, for which the “% Inhibition” value was -9% and the Z score came to 1.24.
`Cc1nn(CCCNC(=O)c2nccnc2C(=O)N2CCCCC2)c(C)c1C`: the “% Inhibition” value turned out to be 8% and the Z score was -1.06.
For `COc1cc(OC)cc(C2(O)CCN(Cc3c(C)noc3C)CC2)c1` the same measures were -8% and 1.26.
For `Cc1ncnc(NCCCn2nccc2C2CC2)c1C`, in that order: -6% and 0.58.
As to `O=C(Cc1cccc(Cl)c1)N1CC[C@@]2(CO)CN(Cc3ccccc3)C[C@H]2C1`, the “% Inhibition” value is recorded as -5% and the Z score amounted to 0.54.
For `COCCn1c(C)cnc1[C@H]1CCN(C(=O)C(C)C)C1`, in that order: 1% and -0.1.
For `O=C(CC1(O)CCCC1)N1CCC(Cc2ccccc2)CC1`, in that order: 7% and -1.17.
For the molecule `O=C(O)C[C@@H]1CCN(S(=O)(=O)c2ccccc2)C[C@@H]1Cc1nc2cccc(Cl)c2[nH]1`, the “% Inhibition” value stood at 6% and the Z score was -0.72.
For `COc1ccc(OC)c2sc(NC(=O)c3cc(C)oc3C)nc12`, in that order: -5% and 0.78.
For `COCC(C)(C)CNc1cc2nncn2c(N)n1`, in that order: -7% and 1.01.
For `NC(=NOCCC1OCCO1)C1CCCCCC1`, in that order: 7% and -0.87.
Turning to `O[C@]12CCNC[C@H]1CN(Cc1cc(F)ccc1C(F)(F)F)CC2`, the “% Inhibition” value is given as -6% and the Z score is listed as 1.07.
With `COc1ccc(C(=O)NCc2c(C(F)(F)F)nn(C)c2Oc2ccccc2)cc1`, the “% Inhibition” value is reported as -7% and the Z score is reported as 1.03.
For `Cc1cc(Br)ccc1NS(=O)(=O)N(C)C` the same measures were -11% and 2.2.
For `O=C(C[C@@H]1NC(=O)N(Cc2ccco2)C1=O)N1CCN(c2ccccc2)CC1` the same measures were 1% and -0.19.
For `CCOc1ccc(NC(=O)c2c(C)oc3ncn(Cc4ccc(F)cc4)c(=O)c23)cc1` the same measures were -11% and 1.53.
On to `CCC(CC)S(=O)(=O)CC(=O)NCc1ccc(Cl)s1`, for which the “% Inhibition” value is on record as -13% and the Z score is recorded as 1.27.
For `CCC1(C)CN(C(=O)c2nc3cnccc3s2)C1`, in that order: 9% and -0.87.
Regarding `CC(C)[C@H](NC(N)=O)C(=O)NCc1ccccc1`, the “% Inhibition” value was 3% and the Z score is reported as -0.49.
For `Cc1[nH]ncc1CNC(=O)CC1(N2Cc3ccccc3C2=O)CCC(C(C)(C)C)CC1` (configuration not stated) the same measures were 2% and -0.2.
For `Brc1cnccc1-c1cncnc1` the same measures were -11% and 1.69.
For `COc1ccc(C(=O)N2C[C@H](c3nnc(C(C)C)o3)C3(CCN(C)CC3)C2)c(C)c1`, in that order: -4% and 0.71.
Turning to `COC(=O)c1cnc(N2CCN(c3ccc(O)cc3)CC2)c(S(=O)(=O)N2CCOCC2)c1`, the “% Inhibition” value was -6% and the Z score amounted to 1.21.
For `CC(C)(C)N(CCS(C)(=O)=O)C(=O)c1cccc(-c2ccoc2)c1`, in that order: 2% and -0.18.
Regarding `CCn1cc(C(=O)NCc2snnc2C)cn1`, the “% Inhibition” value is -8% and the Z score is recorded as 1.1.
For `CNC(=O)c1ccc(CNCC(=O)NC2CCCCCCC2)cc1`, in that order: -7% and 1.1.
On to `C=C[C@](C)(CC)C(=O)Nc1n[nH]cc1Br`, for which the “% Inhibition” value was determined as 35% and the Z score was -3.91.
For `OC[C@H]1COCCN1Cc1c(Cl)oc2ccccc12`, in that order: -10% and 0.95.
For `CC(C)c1nc([C@H](C)Nc2ncnc3[nH]ncc23)cs1`, in that order: -4% and 0.39.
For `O=C(NCC1(c2cccc(F)c2)CCCCC1)c1cncs1` the same measures were 1% and -0.06.
For the molecule `Cc1ccc(C(=O)N[C@H]2CCOC[C@@H]2OCc2c(C)noc2C)c(=O)[nH]1`, the “% Inhibition” value is -10% and the Z score is reported as 2.
For `Cc1cccc(-c2nsc3c(=O)n(CC(=O)Nc4ccc(Br)cc4)cnc23)c1`, in that order: -4% and 0.77.
For the molecule `COc1ccc([N+]2=C3CCCCN3C[C@]2(O)c2ccc(Cl)cc2)cc1`, the “% Inhibition” value (2 µM) is 3% and -11%.
On to `CNS(=O)(=O)CCn1ccnc1-c1ccc(-c2cc[nH]n2)o1`, for which the “% Inhibition” value is -11% and the Z score worked out at 1.12.
For `CC(C)c1ccc2nc(-c3ccc(CN4C(=O)CNC4=O)cc3)[nH]c(=O)c2c1`, in that order: -10% and 1.09.
For `Cc1nc(N2CCOCC2)c2scc(-c3ccccc3)c2n1`, in that order: -11% and 1.48.
For `COCC(=O)N(Cc1c(C)nn(-c2ccccc2)c1Oc1ccc(F)cc1F)C[C@H]1CCCO1` the same measures were 6% and -0.63.
`O=C(CN(C[C@H]1CCCO1)c1ncnc2ccsc12)N1CCCC1`: the “% Inhibition” value was -10% and the Z score was found to be 1.09.
For `CCOC(=O)Cc1csc(NC(=O)c2nc(C)sc2C)n1` the same measures were -20% and 2.43.
For `Cc1cc(-c2csc(NC(=O)Cc3c(F)c(F)c(F)c(F)c3F)n2)c(C)s1`, in that order: 1% and -0.08.
For `Cc1ccc(-c2nc(-c3ccncc3)no2)cn1`, in that order: -17% and 1.96.
With `Cc1c(CCNC(=O)NCCNS(C)(=O)=O)c2cccc3c2n1CCC3`, the “% Inhibition” value is -9% and the Z score is 1.83.
For `CCc1nc(-c2ccccc2)nc(N2CCN(C(=O)c3ccco3)CC2)c1Cc1cccc(C)c1` the same measures were -16% and 2.37.
`Cc1ccc(CNC(=O)C(=O)NC2CC2)cc1`: the “% Inhibition” value was -7% and the Z score worked out at 0.99.
For `COc1ccc(NS(=O)(=O)c2ccc(-c3nnc(C4CCCC4)o3)o2)cc1` the same measures were -10% and 1.28.
As to `Cn1ncc2c1CN(S(=O)(=O)c1cc(F)cc(Cl)c1)C2`, the “% Inhibition” value stood at 7% and the Z score was -0.89.
For `Cc1nn(C)c2nc(O[C@@H](C)C(=O)N3CCc4ccccc43)cc(-c3ccccc3)c12`, in that order: -2% and 0.27.
For `c1cc(-c2ccc(NC3CCCC3)nn2)n[nH]1`, in that order: -15% and 2.87.
For `COc1ccc([C@H]2CC(O)=Nc3nc(N4CCCCC4)sc32)cc1OCC(N)=O` the same measures were -5% and 0.57.
On to `CN(C)c1ccc(NC(=O)C(C2CC=CCC2)N(Cc2nc(-c3ccccc3)cs2)C(=O)Cn2nnc3ccccc32)cc1` (configuration not stated), for which the “% Inhibition” value came to 40% and the Z score is on record as -4.5.
Regarding `Cc1cc(C)c2c(NC(=O)Cc3cccs3)nn(C)c2n1`, the “% Inhibition” value is listed as -15% and the Z score is listed as 1.88.
Turning to `COCCCn1cnnc1CNS(=O)(=O)c1cccc2nn(C)nc12`, the “% Inhibition” value was -4% and the Z score was found to be 0.61.
For `CC1=NO[C@@](C)(Cn2cc(Oc3ccccc3)c(=O)c(C(=O)O)c2)C1`, in that order: -14% and 1.86.
For `CN1CCN(C(=O)c2cccc3ccc(O)nc23)CC1(C)C` the same measures were 6% and -1.22.
For `CCn1cc(CCN2C(=O)C[C@]3(CCc4ccccc43)C2=O)cn1`, in that order: -5% and 0.99.
As for `CCc1ccc(-c2cn3ccn(-c4ccc5c(c4)CCC5)c(=O)c3n2)cc1`, the “% Inhibition” value was 5% and the Z score is recorded as -0.68.
For `Cc1nc(CCN)n(-c2cccc3ccccc23)n1` the same measures were -5% and 0.98.
For `CN(C)S(=O)(=O)N(CCN1CCCC1)[C@H]1CCN(C(=O)Nc2cc(F)ccc2F)C1`, in that order: -10% and 1.3.
For `Cc1nc(CN2CCc3[nH]c4c(Cl)cccc4c3C2)c[nH]1`, in that order: 9% and -1.74.
With `CCCOC(=O)N[C@@H](CC)COC(=O)Nc1cccc(C)c1C`, the “% Inhibition” value was -10% and the Z score worked out at 1.34.
For `OC1(Cc2nc(-c3ccsc3)no2)CCCCC1`, in that order: -10% and 1.53.
For `NC(=O)N1CCC[C@@H]1COC(=O)C1=CCCCCC1`, in that order: 7% and -0.83.
For `Cc1ccc(OC2CN(Cc3ccc(S(C)(=O)=O)cc3)C2)cc1`, in that order: -2% and 0.46.
With `c1ccc(Cn2c(C[n+]3ccccc3)nc3ccccc32)cc1`, the “% Inhibition” value was -2% and the Z score is reported as 0.36.
For `CCn1nc(CC(N)=O)nc1COc1ccc(Cl)cc1C`, in that order: 0% and 0.05.
`Cc1nc(C)c(CNc2ncncc2C(=O)O)s1`: the “% Inhibition” value is reported as -5% and the Z score turned out to be 0.89.
For `CN(C)c1nsc(-c2ccc(C(=O)O)s2)n1`, in that order: -5% and 0.83.
For `O=C(C1CCC1)N1CCCc2cc(S(=O)(=O)N3CCCc4ccccc43)ccc21` the same measures were -11% and 1.35.
For `O=C(NCc1ccncc1)c1cn(C2CN(S(=O)(=O)Cc3ccccc3)C2)nn1`, in that order: -9% and 1.73.
On to `Cc1ccccc1-n1ncc2c1CC(C)(C)C[C@@H]2NC(=O)CCc1scnc1C`, for which the “% Inhibition” value is reported as -23% and the Z score came out at 2.05.
For `CN(C(=O)c1nn2c(c1Br)N[C@@H](c1ccc(Br)o1)C[C@H]2C(F)(F)F)C1CCCCC1`, in that order: 4% and -0.65.
For `CC1CC1c1nc(-c2cnccn2)no1` (configuration not stated), in that order: -7% and 0.79.
`COc1ncc(CN2CCC[C@H](Cn3ccnc3C)C2)cn1`: the “% Inhibition” value is recorded as -6% and the Z score is 0.89.
For `Cc1ccc(Cl)c(OC(C)C(=O)N2C3CCC2CC(O)(Cc2ccc(F)cc2F)C3)c1` (configuration not stated) the same measures were 32% and -0.36.
For `O=C1CC[C@@]2(CCCN(C(=O)N3CCCC3)C2)CN1CCc1c[nH]cn1`, in that order: -1% and 0.1.
For `Cc1ccc(-c2csc(NC(=O)C3C4C=CC(O4)C3C(=O)O)n2)cc1` (configuration not stated), in that order: -15% and 2.08.
